Each structure is given as a SMILES string. The whole screen tested about 310,000 compounds, of which about 14,000 (4.5%) showed an effect of 50% or more. The effect is printed as a negative number. The list shows a part of the results.
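Note: peak tail current of the secondary pulse compared with the same well before compound.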

Sequence of human ether-à-go-go-related gene (hERG) potassium channel (Q12809 whole entry, looked up): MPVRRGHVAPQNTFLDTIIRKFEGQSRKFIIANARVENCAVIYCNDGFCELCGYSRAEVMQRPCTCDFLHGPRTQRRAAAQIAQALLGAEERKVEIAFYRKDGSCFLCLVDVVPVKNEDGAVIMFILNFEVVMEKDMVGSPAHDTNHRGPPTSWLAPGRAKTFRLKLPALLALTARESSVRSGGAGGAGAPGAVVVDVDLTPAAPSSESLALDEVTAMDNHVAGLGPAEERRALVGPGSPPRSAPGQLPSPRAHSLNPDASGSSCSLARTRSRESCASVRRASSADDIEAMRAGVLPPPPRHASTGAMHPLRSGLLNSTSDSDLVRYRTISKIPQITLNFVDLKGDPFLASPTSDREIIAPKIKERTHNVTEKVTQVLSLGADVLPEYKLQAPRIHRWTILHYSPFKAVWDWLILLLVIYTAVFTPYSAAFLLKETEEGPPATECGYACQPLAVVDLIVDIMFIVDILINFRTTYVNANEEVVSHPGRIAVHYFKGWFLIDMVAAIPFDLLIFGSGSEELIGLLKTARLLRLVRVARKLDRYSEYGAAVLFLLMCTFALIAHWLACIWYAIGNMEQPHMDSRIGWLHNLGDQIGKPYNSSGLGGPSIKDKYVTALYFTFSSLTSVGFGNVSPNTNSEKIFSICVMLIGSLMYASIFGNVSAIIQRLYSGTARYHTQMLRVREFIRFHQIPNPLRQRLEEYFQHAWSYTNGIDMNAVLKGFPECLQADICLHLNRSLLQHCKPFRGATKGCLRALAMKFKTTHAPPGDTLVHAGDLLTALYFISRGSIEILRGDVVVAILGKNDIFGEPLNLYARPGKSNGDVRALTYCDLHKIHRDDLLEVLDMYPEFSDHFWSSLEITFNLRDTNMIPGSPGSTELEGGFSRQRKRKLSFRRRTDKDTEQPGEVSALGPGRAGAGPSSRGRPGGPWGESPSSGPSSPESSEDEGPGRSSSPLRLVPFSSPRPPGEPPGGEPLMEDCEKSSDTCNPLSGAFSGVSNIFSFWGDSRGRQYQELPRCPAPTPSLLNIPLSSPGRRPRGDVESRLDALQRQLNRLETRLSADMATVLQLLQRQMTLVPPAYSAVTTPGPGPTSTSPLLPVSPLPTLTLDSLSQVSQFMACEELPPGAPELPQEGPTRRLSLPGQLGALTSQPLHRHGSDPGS

This assay concerns the target human ether-à-go-go-related gene (hERG) potassium channel (human, UniProt Q12809). Briefly: primary screen, population patch clamp on CHO cells stably expressing hERG.
As to `CN(CC(=O)Nc1cccc(F)c1)C(=O)c1ccc(N2CCCCC2)c([N+](=O)[O-])c1`, the “hERG current change (%, negative = inhibition) at 10uM” value was -8.94%.
Then `CCc1cc(-c2[nH]ncc2-c2nc3ccccc3n2C)c(O)cc1O`, with -13.6%; and `COc1cccc(CN(C)C(=O)CCc2nnc(-c3ccsc3)o2)c1`, with -8.35%.
Consider `NC(=O)CC(NC(=O)c1ccc(Br)cc1)c1ccc(N2CCN(c3ccccn3)CC2)c([N+](=O)[O-])c1` (centres unmarked), for which the “hERG current change (%, negative = inhibition) at 10uM” value is -10%.
On to `Cc1cc(OC(C)C(=O)NCC2CCC(C(=O)O)CC2)c2c(C)c(Cc3ccccc3)c(=O)oc2c1` (centres unmarked), for which the “hERG current change (%, negative = inhibition) at 10uM” value is reported as -16.6%.
Take `CCSc1nc(O)c(C2OC(=O)c3c2ccc(OC)c3OC)c(=O)n1-c1ccccc1` (centres unmarked): the “hERG current change (%, negative = inhibition) at 10uM” value worked out at 21%.
To `CCOC(=O)Cn1cc(/C=C(\C#N)C(=O)N2CCOCC2)c2ccccc21` belongs -5.7%; to `Cn1cc(CN2CCCC(C(=O)c3ccc(-c4ccccc4)cc3)C2)cn1` (centres unmarked), -34.4%.
Turning to `Cc1cc(Br)ccc1S(=O)(=O)NCc1ccccc1`, the “hERG current change (%, negative = inhibition) at 10uM” value is -0.319%.
For the molecule `COc1ccc2cc3cc(C(=O)N4CCN(c5ccccc5)CC4)oc3nc2c1`, the “hERG current change (%, negative = inhibition) at 10uM” value came out at 13.2%.
Turning to `CCN(c1ccccc1)S(=O)(=O)c1ccc(Cl)c(NC(=O)CSc2nnc(C)s2)c1`, the “hERG current change (%, negative = inhibition) at 10uM” value is given as -24.2%.
As to `Cc1ccsc1/C=C1/SC(=O)N(CC(=O)N2CCOCC2)C1=O`, the “hERG current change (%, negative = inhibition) at 10uM” value is listed as 1.16%.
Regarding `O=c1cc(-c2ccccc2)nc(SCc2ccc(Cl)cc2)[nH]1`, the “hERG current change (%, negative = inhibition) at 10uM” value was 11.2%.
To `CCOc1ccccc1Nc1nc(N)nc(CSc2nccc(C)n2)n1` belongs -5.29%; to `O=C(NCCc1ccc2c(c1)OCCO2)c1cccc(S(=O)(=O)N2CCCC2)c1`, -5.94%.
Consider `CC(=O)N(C)c1ccc(NC(=O)CCN2C(=O)c3ccccc3C2=O)cc1`, for which the “hERG current change (%, negative = inhibition) at 10uM” value came out at 16.5%.
Turning to `CSc1nncc(/C(C)=N\Nc2ccccc2C)n1`, the “hERG current change (%, negative = inhibition) at 10uM” value is given as -4.79%.
Then `Cc1ccc(S(=O)(=O)NNC(=O)Nc2cccc(F)c2)c(C)c1`, with 4.66%; and `O=c1[nH]c2cc3c(cc2cc1C(c1nnnn1Cc1ccccc1)N1CCCCCC1)OCCO3` (centres unmarked), with -11.2%.
`CCCCCCCCOC(=O)c1nc(Cl)c(Cl)c(N)c1Cl`: the “hERG current change (%, negative = inhibition) at 10uM” value is reported as -66.3%.
Consider `Cc1onc(C(N)=O)c1C(=O)Nc1ncc(C(F)(F)F)cc1Cl`, for which the “hERG current change (%, negative = inhibition) at 10uM” value is 11.6%.
Turning to `CC(C)(C)c1cc(C(=O)NCCCn2ccnc2)cc(C(C)(C)C)c1.Cl`, the “hERG current change (%, negative = inhibition) at 10uM” value is 13.1%.
For `O=C(CCC(=O)N1CCN(c2ccccn2)CC1)Nc1nnc(C2CCCCC2)s1`, the “hERG current change (%, negative = inhibition) at 10uM” value is 7.03%.
For `O=C(CC1SCCNC1=O)Nc1cccc(Cl)c1` (centres unmarked), the “hERG current change (%, negative = inhibition) at 10uM” value is recorded as 16.8%.
Turning to `O=C(NCC1CCCO1)c1cc2c(s1)CS(=O)(=O)C2` (centres unmarked), the “hERG current change (%, negative = inhibition) at 10uM” value turned out to be 11.8%.
Regarding `c1ccc2c(CCNc3ncnc4nc[nH]c34)c[nH]c2c1`, the “hERG current change (%, negative = inhibition) at 10uM” value was determined as 11.8%.
Then `Cc1ccc(C(=O)c2ccccc2C(=O)O)cc1C`, with 7.52%; and `CCCCn1nc(C(=O)NC2=NCCS2)c2ccccc2c1=O`, with -16.3%.
For `COc1cccc(-c2nc(CS(=O)(=O)CC(=O)NCCc3ccc(C)cc3)c(C)o2)c1`, the “hERG current change (%, negative = inhibition) at 10uM” value was determined as 1.59%.
As to `COc1cc2c(C#CCCCO)c(-c3ccc(C#N)cc3)oc(=O)c2cc1OC`, the “hERG current change (%, negative = inhibition) at 10uM” value came out at 1.85%.
Take `C=CCOc1cccc(CNn2cn[nH]c2=S)c1`: the “hERG current change (%, negative = inhibition) at 10uM” value turned out to be 10.1%.
`C=CCn1c(C)cc(C(=O)COC(=O)COc2ccccc2C#N)c1C`: the “hERG current change (%, negative = inhibition) at 10uM” value is -4.56%.
On to `CCOC(=O)N1CCN(C(=O)CCS(=O)(=O)c2cc3c(cc2Cl)NC(=O)CO3)CC1`, for which the “hERG current change (%, negative = inhibition) at 10uM” value is recorded as -4.26%.
For the molecule `COc1ccc(CN2CCN(C(=O)CC(C)C)CC2)cc1`, the “hERG current change (%, negative = inhibition) at 10uM” value is 25.4%.
Turning to `CCCS(=O)(=O)c1c(S(=O)(=O)CCC)c2ccccn2c1C(=O)OC`, the “hERG current change (%, negative = inhibition) at 10uM” value was -7.5%.
To `CCCn1c(SCC(=O)NCc2ccc(C)cc2)n[nH]c1=O` belongs 17.3%; to `N/C(=N\[N+](=O)[O-])N1CCN(C(=O)c2ccccc2)CC1`, 24.8%.
As to `COc1cccc(Nc2nnc(SCC(=O)Nc3sccc3C(N)=O)s2)c1`, the “hERG current change (%, negative = inhibition) at 10uM” value worked out at 8.27%.
Then `COc1ccc(-c2noc3c2-c2nc(-c4c(F)cccc4F)sc2CC3)cc1`, with 16.1%; and `CCC(=NCc1ccco1)c1c(O)[nH]c(=O)[nH]c1=O`, with -20.8%; and `Nc1ccc2nc3n(c(=O)c2c1)CCC3`, with 11.9%.
`Brc1ccccc1C1=Nn2c(nnc2-c2ccco2)SC1`: the “hERG current change (%, negative = inhibition) at 10uM” value is reported as -29.2%.
Regarding `O=C(NCCNC(=O)C(F)(F)F)c1ccncc1`, the “hERG current change (%, negative = inhibition) at 10uM” value is listed as -1.76%.
For the molecule `CC(NC(=S)NC(=O)c1ccccc1Br)c1ccccc1` (centres unmarked), the “hERG current change (%, negative = inhibition) at 10uM” value was 4.83%.

The values above are taken from PMC4336329 (PLoS ONE, 2015).
